According to PubChem BioAssay AID2147 (National Center for Advancing Translational Sciences (NCATS), 2009):
Among all 230,000 compounds or so, about 3,600 (1.6%) were called active. The inconclusive results got no clear call from the source; some entries with a clear call stand among them for comparison. The call rests on the fitted dose curve; in most records, active means well fitted inhibition curve with a large enough effect (not every such curve was filed as active); inconclusive means small, poorly fitted or top-dose-only effect, or another doubt; inactive means no such curve, though single readings can be large or run the other way. A potency beside an inconclusive call is a rough fit, not a confirmed value.

The compounds below were run against Lysine-specific demethylase 4E (Homo sapiens) (UniProt B2RXH2) (assay: qHTS Assay for Inhibitors of Human Jumonji Domain Containing 2E (JMJD2E)). Details: JMJD2E catalytic domain, FDH-coupled NADH fluorescence (FDH is formaldehyde dehydrogenase); series mostly up to 57.1 µM.
Further: nearly all actives have a fitted effect of over 50% in size.
Potency means the concentration at half of the fitted maximal effect; tags describe the fitted curve by direction and shape.

Sequence of UniProt B2RXH2 (B2RXH2 whole entry, looked up, the tested form may be a part): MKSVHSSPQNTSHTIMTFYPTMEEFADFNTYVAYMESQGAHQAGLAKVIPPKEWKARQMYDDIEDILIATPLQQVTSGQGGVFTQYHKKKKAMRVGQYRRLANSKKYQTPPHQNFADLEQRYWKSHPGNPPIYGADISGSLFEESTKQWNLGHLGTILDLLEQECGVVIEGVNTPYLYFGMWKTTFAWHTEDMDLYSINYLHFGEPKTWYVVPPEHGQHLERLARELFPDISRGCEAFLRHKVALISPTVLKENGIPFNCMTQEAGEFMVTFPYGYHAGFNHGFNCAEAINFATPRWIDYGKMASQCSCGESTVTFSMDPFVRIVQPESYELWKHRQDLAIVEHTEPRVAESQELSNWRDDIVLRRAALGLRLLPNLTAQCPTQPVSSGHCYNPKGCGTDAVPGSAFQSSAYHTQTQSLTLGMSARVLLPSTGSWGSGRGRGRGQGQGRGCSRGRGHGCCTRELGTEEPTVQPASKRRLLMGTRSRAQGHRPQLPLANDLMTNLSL

SMILES | Potency
O=C(O)Cc1ccc2[nH]c3ccc(CC(=O)O)cc3c2c1 | inconclusive: 35.5 µM [inhibitor, single point]
CN(Cc1cccnc1)C(=O)CC1C(=O)NCCN1Cc1ccc(-c2ccccc2)cc1 (stereo not drawn) | inconclusive: 22.4 µM [inhibitor, single point]
NNC(=O)c1ccc(-c2ccccc2F)cc1 | inactive
N#C/C(=C\c1ccco1)c1nc2ccccc2s1 | inactive
CCOC(=O)C1CCN(C(=O)Nc2ccc3c(c2)nc(C)n3C)CC1 | inconclusive: 39.8 µM [inhibitor, single point]
COc1cccc(-n2nc(C(=O)O)c3ccccc3c2=O)c1 | inactive
COCC(C)OC(=O)c1c(N)n(CCCN2CCOCC2)c2nc3ccccc3nc12 (stereo not drawn) | inconclusive: 25.1 µM [inhibitor, partial curve]
O=c1[nH]n(-c2ccc(Cl)cc2)c2ncccc12 | inactive
CCN=C1Sc2nc3ccc(OCC)cc3cc2CN1CCOC | inconclusive: 39.8 µM [inhibitor, single point]
CCNC(=S)NS(=O)(=O)c1ccccc1 | inconclusive: 39.8 µM [inhibitor, single point]
CCOC(=O)CCc1c(C)c(C#N)c2[nH]c3ccccc3n2c1=O | inconclusive: 0.631 µM [inhibitor, full curve]
CN1C(=O)S/C(=C\c2ccc(-n3cncn3)cc2)C1=O | inactive
O=S(=O)(Nc1nc2ccccc2nc1NCC1CCCO1)c1cccc(Cl)c1 (stereo not drawn) | inconclusive: 31.6 µM [inhibitor, partial curve]
CC(C)(C)c1ccc(C(=O)NNc2cc(N3CCOCC3)nc(N3CCOCC3)n2)cc1 | inactive
COc1ccc(CCN(C)C(=O)C2CCN(Cc3ccc(C)cc3)CC2)cc1OC | inconclusive: 35.5 µM [inhibitor, single point]
COC(=O)[C@@]1(Cc2ccc(F)cc2)[C@H]2c3cc(C(=O)N(C)C)n(Cc4ccc(S(C)(=O)=O)cc4)c3C[C@H]2CN1C(=O)c1ccccc1 | inconclusive: 39.8 µM [inhibitor, single point]
C=CCSC1=N/C(=C\c2cc(OCC)c(OC(C)=O)c([N+](=O)[O-])c2)C(=O)S1 | inactive
COc1ccc(OC)c(C2C=C(c3ccc(C)c(C)c3)Nc3nnnn32)c1 (stereo not drawn) | inconclusive: 35.5 µM [inhibitor, single point]
O=C1CCCN1CCC1CCN(C2CC(=O)N(c3ccc(F)cc3)C2=O)CC1 (stereo not drawn) | inactive
O=C(NC1CCCC1)C(c1ccc(Cl)cc1)N1CCc2ccccc21 (stereo not drawn) | inactive
CSc1nsc(/C=C/Nc2cccc(Cl)c2)c1C#N | inactive
Cc1cc(NS(=O)(=O)c2ccc(NC(=O)CSc3nc4sc(C(=O)O)c(C)c4c(=O)[nH]3)cc2)no1 | inactive
O=C(C1CCC(CNc2c(N3CCOCC3)c(=O)c2=O)CC1)N1CCN(c2ccccc2)CC1 (stereo not drawn) | inactive
CCn1c(-c2cc3ccccc3cc2O)n[nH]c1=S | inconclusive: 28.2 µM [inhibitor, single point]
COc1ccc2nc(SCC(=O)Nc3c(C)cccc3C)[nH]c2c1 | inactive

SMILES | Potency
Cn1c(=O)c2c(nc(N/N=C/c3cccs3)n2Cc2ccc(Br)cc2)n(C)c1=O | inconclusive: 31.6 µM [inhibitor, single point]
COc1cccc2c(=O)c3c(cnn3C)n(C)c12 | inconclusive: 31.6 µM [inhibitor, partial curve]
O=C(NCc1ccccc1)c1ccc2nccnc2c1 | inactive
COc1cccc2cc(-c3nnc(SCC(=O)Nc4nc(C)cs4)n3C)oc12 | inconclusive: 39.8 µM [inhibitor, single point]
C#CCO[C@@H]1C[C@H](n2cnc3c(=O)[nH]c(NC(=O)C(C)C)nc32)O[C@@H]1CO | inconclusive: 8.91 µM [inhibitor, single point]
Cc1ccc(S(=O)(=O)NN2C(=O)c3ccccc3NC2c2cccc(O)c2)cc1 (stereo not drawn) | inconclusive: 31.6 µM [inhibitor, partial curve]
COc1ccc(-n2ncc3c(NCCN4CCOCC4)ncnc32)cc1 | inconclusive: 39.8 µM [inhibitor, single point]
CCN(CC)S(=O)(=O)c1ccc2[nH]cc(C(=O)NCCCN3CCCCC3C)c(=O)c2c1 (stereo not drawn) | inconclusive: 39.8 µM [inhibitor, single point]
Cc1cccc2sc(NC(=O)c3cccc(S(=O)(=O)N4CCc5ccccc54)c3)nc12 | inconclusive: 7.08 µM [inhibitor, single point]
Cc1ccc(NC(=O)COc2ccccc2C(=O)NCCN(C)C)cc1 | inconclusive: 28.2 µM [inhibitor, partial curve]
CC(C)(C)c1ccc(-c2noc(-c3ccc4c(c3)CCO4)n2)cc1 | inconclusive: 39.8 µM [inhibitor, single point]
CCCCNC(=O)C1CCN(C/C(C)=C/c2ccccc2)CC1 | inactive
COc1ccc(NS(=O)(=O)c2cccc(C(=O)N/N=C(\C)c3ccc(-n4ccnc4)cc3)c2)cc1 | inconclusive: 35.5 µM [inhibitor, single point]
COCCCn1c(=N)c(C(=O)NCC2CCCO2)cc2c(=O)n3cccc(C)c3nc21 (stereo not drawn) | inconclusive: 0.794 µM [inhibitor, full curve]
COCCN(C(=O)c1ccco1)c1nnc(-c2ccc(F)cc2)s1 | inactive
CC1(OC(=O)CCc2ccccc2)C(=O)C=C2C=C(c3ccc(C#N)cc3)N(C(CO)CO)C=C2C1=O (stereo not drawn) | active: 3.55 µM
CC1OC23CCCCC2C(C#N)(C(=N)O3)C1(C#N)C#N (stereo not drawn) | inconclusive: 28.2 µM [inhibitor, partial curve]
CCCCOc1ccc(CSc2ncn[nH]2)cc1 | inconclusive: 25.1 µM [inhibitor, single point]
N/C(=N\OC(=O)c1ccco1)c1ccccc1 | inactive
CCOC(=O)CSc1nc2c(c(=O)[nH]c(=O)n2C)n1C/C=C(/C)Cl | inactive
COCC(=O)N(C)c1nnc(-c2cnc(C)cn2)s1 | inconclusive: 25.1 µM [inhibitor, partial curve]
Fc1ccccc1CN1CCCN(C(=S)Nc2cccc(Cl)c2)C1 | inactive
NC(=O)C1=C[C@@H](c2csc3ccccc23)C[C@@H](OCc2ccc(CO)cc2)O1 | active: 22.4 µM
Cc1nc(-c2ccc(C(=O)NCCO)cc2)cs1 | inconclusive: 25.1 µM [inhibitor, partial curve]
Cc1cc(C)cc(NS(=O)(=O)c2ccc(NC(=S)Nc3ccccc3)cc2)c1 | inactive

SMILES | Potency
CCc1cccc(NC(=O)Cn2c3[n+](c4ccc(C(F)(F)F)cc42)CCCCC3)c1 | inconclusive: 31.6 µM [inhibitor, single point]
CCCn1c(CCC(=O)O)ccc1-c1cccs1 | inconclusive: 31.6 µM [inhibitor, partial curve]
Cc1ccc2nc(-c3ccc(NC(=O)CSCC(=O)O)cc3)sc2c1 | inconclusive: 25.1 µM [inhibitor, partial curve]
CCCCCCCN1C2=NCCN2c2ccccc21 | inactive
COc1cccc(C(=O)NCC(=O)OCC(=O)Nc2cc(OC)c([N+](=O)[O-])cc2C)c1 | inactive
O=[N+]([O-])c1ccc(-c2nc(C(Cl)Cl)c3ccccc3n2)cc1 | inactive
Cc1ccccc1C(=O)N1CCC(C(=O)Nc2ccc3c(c2)OCO3)CC1 | inactive
CCC(=O)Oc1ccc(C(=O)Nc2ccc3c(c2)OCO3)cc1 | inconclusive: 6.31 µM [inhibitor, full curve]
CCOC(=O)C1=C(C)NC(C)=C(C(=O)OCC)C1C(=O)OCC(=O)NC(C)C | inconclusive: 31.6 µM [inhibitor, single point]
COc1ccc(-c2cn3cccnc3n2)cc1NC(=O)c1cc(OC)c(OC)c(OC)c1 | inconclusive: 22.4 µM [inhibitor, partial curve]
CCOC(=O)C1=C(C)NC(C)=C(C(=O)OCC)C1C(=O)OCC(=O)N(C)C | inconclusive: 39.8 µM [inhibitor, single point]
CCn1c(-c2ccc(C)cc2)n[nH]c1=S | inactive
O=c1oc2ccccc2cc1-c1nc(-c2ccccc2)no1 | inconclusive: 28.2 µM [inhibitor, partial curve]
Cc1onc(-c2ccccc2)c1-c1ccnn1S(=O)(=O)c1ccc(Cl)cc1 | inactive
N#CC(c1ccccc1)c1ccc(C(=O)c2ccc(F)cc2)cc1 (stereo not drawn) | inactive
O=C(c1cccs1)N1CCC(N2CCN(c3ccccc3)CC2)CC1 | inconclusive: 39.8 µM [inhibitor, single point]
Cc1nc(N)sc1-c1csc(NCc2ccccc2)n1 | inconclusive: 39.8 µM [inhibitor, single point]
O=C(Cn1cnc2ccccc2c1=O)Nc1nc2ccccc2s1 | inconclusive: 31.6 µM [inhibitor, single point]
CCOC(=O)c1c(NC(=O)C(=O)N/N=C(\C)c2ccc(OC)cc2)sc2c1CCCCC2 | inconclusive: 35.5 µM [inhibitor, single point]
Clc1cc(Br)ccc1OCCCn1ccnc1 | inconclusive: 35.5 µM [inhibitor, single point]
CNc1ncnc2c1ncn2[C@H]1C[C@H](OP(=O)(O)O)[C@@H](COP(=O)(O)O)O1 | inactive
CS(=O)(=O)Nc1ccccc1C(=O)NCc1ccccc1Cl | inconclusive: 31.6 µM [inhibitor, partial curve]
CCOC(=O)CC(NC(=O)c1cc2ccccc2oc1=O)c1cccc([N+](=O)[O-])c1 (stereo not drawn) | inconclusive: 31.6 µM [inhibitor, single point]
